Data from article PMC6919601, “Identification of Plasmodium dipeptidyl aminopeptidase allosteric inhibitors by high throughput screening” (PLoS ONE, 2019).
Several values for one entry are separate records, joined by “and”; a condition that tells them apart may be missing. Equal values may be shown once. In all, about 110,000 compounds went through this assay and about 230 (0.21%) showed an effect of 50% or more. Some of the results follow.

Target: DPAP1 (Plasmodium falciparum, UniProt Q8IIJ9)
Assay: primary screen, percent inhibition; read by cleavage of a fluorogenic dipeptide substrate; higher = more effect of the substance
Set-up: species or system P. falciparum D10 trophozoite lysates; single well
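Also: 30 min substrate incubation versus DMSO and 10 µM JCP410 controls.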

Sequence of DPAP1 (Q8IIJ9 whole entry, looked up): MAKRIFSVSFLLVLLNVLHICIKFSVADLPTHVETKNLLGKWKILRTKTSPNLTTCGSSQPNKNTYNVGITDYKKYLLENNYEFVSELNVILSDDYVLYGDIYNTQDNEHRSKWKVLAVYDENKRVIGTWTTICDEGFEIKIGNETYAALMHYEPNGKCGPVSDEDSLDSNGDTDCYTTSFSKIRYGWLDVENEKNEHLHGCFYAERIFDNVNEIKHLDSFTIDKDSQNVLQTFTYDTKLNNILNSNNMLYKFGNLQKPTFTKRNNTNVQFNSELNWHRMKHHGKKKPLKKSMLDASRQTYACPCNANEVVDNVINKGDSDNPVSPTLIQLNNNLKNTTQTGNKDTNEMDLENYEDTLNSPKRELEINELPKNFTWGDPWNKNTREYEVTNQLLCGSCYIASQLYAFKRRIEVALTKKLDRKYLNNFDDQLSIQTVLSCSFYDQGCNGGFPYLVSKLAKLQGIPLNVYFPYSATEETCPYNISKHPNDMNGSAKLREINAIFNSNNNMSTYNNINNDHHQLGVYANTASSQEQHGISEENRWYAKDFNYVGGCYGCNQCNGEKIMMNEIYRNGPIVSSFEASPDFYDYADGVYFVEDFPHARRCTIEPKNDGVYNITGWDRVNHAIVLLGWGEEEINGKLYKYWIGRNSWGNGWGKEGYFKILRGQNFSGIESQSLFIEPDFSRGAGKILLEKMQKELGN

Going from `Cc1ccc(OC(C)C(=O)N(Cc2ccccc2F)C2CCS(=O)(=O)C2)cc1C` (stereo not drawn) to `COc1cc(C)c(CN2CCc3c([nH]c4ccccc34)C2)cc1C`, the “% Inhibition @ 10 uM” value rises from -3.12% to -2%.

Going from `CCCCOC(=O)Nc1ccc(S(=O)(=O)Nc2ccc(Br)cc2)cc1` to `CC(Oc1ccc(Cl)cc1Cl)C(=O)Nc1ccc(S(=O)(=O)N2CCCC2)cc1` (stereo not drawn), the “% Inhibition @ 10 uM” value rises from -3.35% to 3.24%.

First: CCCCN(CC)CCNC(=O)CCn1c(=O)c2cccn2c2cccnc21
Second: CCOCCCNC(=O)Cn1nc(C)c2sc3ccccc3c2c1=O
The “% Inhibition @ 10 uM” value of the first is higher: 0.951% for the first, -0.698% for the second.

Compared with `CCN(CC)C(=O)NC1C(NC(=O)N(CC)CC)N(C)C(=O)N1C` (stereo not drawn), `CCOCCn1c(CN2CCCCC2C)nc2c1c(=O)n(C)c(=O)n2C` (stereo not drawn) is higher in “% Inhibition @ 10 uM” value: -7.58% for the first, -5.1% for the second.

Compared with `COc1ccc(-c2noc(CC(=O)NC3CCCc4ccccc43)n2)cc1` (stereo not drawn), `O=C(NCCC1=CCCCC1)C(c1ccccc1)N1Cc2ccccc2C1=O` (stereo not drawn) is higher in “% Inhibition @ 10 uM” value: -0.822% for the first, 2.08% for the second.

First: COc1cc(C)ccc1S(=O)(=O)NC1CC(C)(C)NC(C)(C)C1
Second: COc1cc(-c2nnc3n(CC(C)C)c(=O)c4ccccc4n23)ccc1O
The “% Inhibition @ 10 uM” value of the first is higher: -3.49% for the first, -3.51% for the second.

Compared with `CCOC(=O)c1sc2nc3c(cc2c1N)CN(Cc1ccccc1)CC3`, `C=CCN(CC=C)C(=O)c1sc2nc(C)cc(C)c2c1NC(=O)c1ccccc1Cl` is higher in “% Inhibition @ 10 uM” value: 2.34% for the first, 6.73% for the second.

Compared with `Cc1cn2cccc(C)c2n1`, `CC1=NN(C(=O)c2cccc(N(C)C)c2)C(O)(C(F)(F)F)C1` (stereo not drawn) is lower in “% Inhibition @ 10 uM” value: 0.66% for the first, -12.5% for the second.

First: Cn1c2ccccc2c2cc(C3CC(=O)Oc4c3c(=O)oc3ccccc43)ccc21 (stereo not drawn)
Second: O=C(COc1ccc(C2N(Cc3ccccc3)CCN2Cc2ccccc2)cc1)N1CCOCC1
The “% Inhibition @ 10 uM” value of the first is lower: 1.32% for the first, 20.5% for the second.

Going from `COC(=O)C1C[C@@H](O)CN1CC1CC=CCC1` (stereo partly drawn) to `CC1CCCCC1N1CC(=O)N(Cc2ccc(F)cc2)C(c2ccc(Cl)cc2)C1=O` (stereo not drawn), the “% Inhibition @ 10 uM” value rises from -4.8% to -0.406%.

Compared with `COc1cc(OC)cc(C(=O)/N=c2\sc(C)c(-c3ccccc3)n2C)c1`, `CC(NC(=O)c1cc(S(=O)(=O)N2CCCC2)cn1C)c1ccccc1` (stereo not drawn) is lower in “% Inhibition @ 10 uM” value: -1.61% for the first, -5.99% for the second.

Compared with `O=C(/C=C/c1ccc([N+](=O)[O-])cc1)NCCc1ccccn1`, `Cc1ccc(CC(=O)NCCCn2ccnc2)cc1` is lower in “% Inhibition @ 10 uM” value: 4.89% for the first, 3.87% for the second.

First: CCCCCC(C)NC(=O)c1ccc(Cl)c(Cl)c1 (stereo not drawn)
Second: C=CCOC(=O)C1=C(C)N=C2CCCC(O)=C2C1c1cc(OC)c(OC)c(OC)c1 (stereo not drawn)
The “% Inhibition @ 10 uM” value of the first is lower: -4.21% for the first, 2.45% for the second.

With `C=CCNc1nc(C2COc3ccccc3O2)cs1` (stereo not drawn) the “% Inhibition @ 10 uM” value was -4.15% and -3.85%.
